Laboratory results as given in PubChem BioAssay (NCATS).
Inconclusive means that the source gave no clear call. Such entries were picked first, then a sample of the others. For part of these data: A potency beside an inconclusive call is a rough fit, not a confirmed value. Active and inactive are the calls of the source. Unless noted, calls follow the shape of the dose curve; as a rule, active = well fitted curve in the direction sought with a large enough effect; inconclusive = small, poorly fitted or top-dose-only effect, or another doubt; inactive = no such curve, though single readings can be large; an effect the other way counts as inactive or inconclusive.

What was measured:
[1] = Cell Viability - Jurkat (AID 426;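 active = dose-dependent loss of cell ATP signal giving a full or clear fitted curve, ranked by lower potency value; inconclusive = weak partial curve or response only at the top dose; inactive = no loss of viability signal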; also: potency is read from the fitted curve at half-maximal effect); details: qHTS
Procedure, shortened: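 Jurkat (Clone E6-1) cells, 5000/well in complete medium, exposed to compounds for 40 hr at 37C; intracellular ATP measured by CellTiter-Glo luminescence after 20 min at room temperature. AC50 from Hill fits.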

[2] = Cell Viability - SK-N-SH (AID 435; calls by dose curve;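 also: potency is read from the fitted curve at half-maximal effect; compound exposure lasted 40 h at 37 °C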); details: SK-N-SH neuroblastoma cell viability qHTS
Procedure, shortened: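 SK-N-SH human neuroblastoma cells (1500/well) were exposed to compounds in complete medium for 40 h at 37 °C, and intracellular ATP was then measured by CellTiter-Glo luminescence. AC50 was taken from Hill fits, normalized to DMSO and 100 uM tamoxifen.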

[3] = Cell Viability - NIH 3T3 (AID 541); details: NIH 3T3 cell viability, qHTS; activity change, negative = cytotoxicity: at 92.2 µM (top of the series); also: potency is read from the fitted curve at half-maximal effect; nearly all actives have a fitted effect of over 25% in size
Procedure, shortened: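 Mouse NIH 3T3 fibroblasts, 1000 cells/well, rested 5 hr at 37 °C, then exposed to compound for 40 hr at 37 °C in complete medium. Viability read as intracellular ATP by CellTiter-Glo luminescence; AC50 from Hill-equation fits of concentration-response data.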

[4] = Cell Viability - H-4-II-E (AID 543); details: H-4-II-E rat hepatoma viability; series mostly up to 92.2 µM; also: potency is read from the fitted curve at half-maximal effect; nearly all actives have a fitted effect of over 35% in size
Procedure, shortened: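 Rat hepatoma H-4-II-E cells, 1500 per well, treated 40 h at 37 °C in complete medium. Cellular ATP read by CellTiter-Glo luminescence; AC50 from Hill fits of concentration-response.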

[5] = Cellular Toxicity (caspase-3) NIH 3T3 (AID 666); details: NIH 3T3 caspase-3 activation, apoptosis/toxicity;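 also: potency is read from the fitted curve at half-maximal effect; caspase signal read after 16 h compound exposure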
Procedure, shortened: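 Mouse NIH 3T3 fibroblasts (1000/well) treated 16 h at 37 C; caspase-3/7 activity measured by Caspase-Glo 3/7 luminescence after 20 min. Normalized to DMSO and 100 uM tamoxifen; AC50 from Hill fits.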

[6] = Cell Viability - LYMP2-001 (AID 921); details: LYMP2-001 lymphoblastoid cell viability; series mostly up to 92.2 µM;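 also: 0% = DMSO only and full inhibition = tetraoctylammonium bromide control wells; nearly all actives have a fitted effect of over 70% in size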
Procedure, shortened: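 Human lymphoblastoid cells (Coriell), 2500 per well, were preincubated 5 hr at 37 C, then exposed to compounds in complete medium for 24 hr at 37 C. Cellular ATP was read by CellTiter-Glo luminescence; AC50 from Hill fits of concentration-response data.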

[7] = MultiTox-Fluor Cytotoxicity Assay - LYMP1-001 - Dead Cells (AID 946); details: LYMP1-001 lymphoblastoid cells, dead-cell protease fluorescence; cytotoxicity (dead cells): at 92.2 µM (top of the series);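 also: potency is read from the fitted curve at half-maximal effect; cells exposed to compound for 16 h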
Procedure, shortened: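 LYMP1-001 lymphoblastoid cells (2500/well) treated 16 h at 37 C. Dead-cell protease cleavage of bis-AAF-R110 read at Ex/Em 485/520. Normalized to DMSO and 15 uM tetraoctylammonium bromide; AC50 from Hill fits.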

[8] = MultiTox-Fluor Cytotoxicity Assay - LYMP1-001 - Live Cells (AID 947); details: LYMP1-001 lymphoblastoid cells, live-cell protease fluorescence viability; series mostly up to 92.2 µM; also: potency is read from the fitted curve at half-maximal effect
[9] = MultiTox-Fluor Cytotoxicity Assay - LYMP1-002 - Dead Cells (AID 960); details: LYMP1-002 lymphoblastoid cells, dead-cell protease fluorescence; cytotoxicity (dead cells): at 46.1 µM (top of the series); also: potency is read from the fitted curve at half-maximal effect; nearly all actives have a fitted effect of over 60% in size
Procedure, shortened: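 Human lymphoblastoid LYMP1-002 cells, 2500/well, treated 16 h at 37 C; dead-cell protease cleavage of bis-AAF-R110 read by fluorescence (485/520); normalized to DMSO and 15 uM tetraoctylammonium bromide; AC50 from Hill fit.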

[10] = Cell Viability - LYMP1-003 - Assay at 40 hr (AID 964); details: LYMP1-003 lymphoblastoid viability; series mostly up to 92.2 µM; also: potency is read from the fitted curve at half-maximal effect; nearly all actives have a fitted effect of over 60% in size
Procedure, shortened: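 LYMP1-003 human lymphoblastoid cells, 2500/well, preincubated 5 h at 37 C, then treated with compound for 40 h at 37 C. Intracellular ATP read by CellTiter-Glo luminescence after 30 min at room temperature; AC50 from Hill-equation fits.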

[11] = Cell Viability - LYMP2-004 (AID 966); details: LYMP2-004 lymphoblastoid cell viability, qHTS; series mostly up to 92.2 µM; also: potency is read from the fitted curve at half-maximal effect; nearly all actives have a fitted effect of over 65% in size
Procedure, shortened: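 Lymphoblastoid LYMP2-004 cells, 2500 per well, were preincubated for 5 hr and then treated with compound for 24 h at 37 C in complete medium. Viability was read as cellular ATP by CellTiter-Glo luminescence, and AC50 values were taken from Hill fits to concentration-response data.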

[12] = Cell Viability - LYMP2-009 (AID 968); details: LYMP2-009 lymphoblastoid cell viability; series mostly up to 92.2 µM; also: potency is read from the fitted curve at half-maximal effect; nearly all actives have a fitted effect of over 55% in size
[13] = Cell Viability - LYMP2-011 (AID 969); details: LYMP2-011 lymphoblastoid cells viability; series mostly up to 92.2 µM; also: potency is read from the fitted curve at half-maximal effect; nearly all actives have a fitted effect of over 60% in size
Procedure, shortened: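 2500 cells/well in complete medium, compound-treated 24 h at 37 C. Viability read as intracellular ATP by CellTiter-Glo luminescence after 30 min at room temperature. AC50 from Hill fits of qHTS concentration-response data.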

[14] = Cell Viability - LYMP2-013 (AID 970); details: LYMP2-013 lymphoblastoid cells viability; activity change, negative = cytotoxic: at 92.2 µM (top of the series); also: potency is read from the fitted curve at half-maximal effect; nearly all actives have a fitted effect of over 55% in size
Procedure, shortened: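 Human lymphoblastoid LYMP2-013 cells, 2500/well, treated 24 h at 37 C in complete medium; viability as intracellular ATP by CellTiter-Glo luminescence after 30 min. AC50 from Hill fits of qHTS concentration-response.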

[15] = Cell Viability - LYMP2-015 (AID 971); details: LYMP2-015 lymphoblastoid cell viability; series mostly up to 92.2 µM; also: potency is read from the fitted curve at half-maximal effect; nearly all actives have a fitted effect of over 55% in size
Procedure, shortened: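 LYMP2-015 human lymphoblastoid cells (2500/well) in complete medium, compound-treated 24 h at 37 C; viability read as cellular ATP by CellTiter-Glo luminescence after 30 min at room temperature. AC50 from Hill-equation fits of qHTS concentration-response data.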

[16] = Cell Viability - LYMP2-017 (AID 972); details: LYMP2-017 lymphoblastoid cell viability; series mostly up to 92.2 µM; also: potency is read from the fitted curve at half-maximal effect; nearly all actives have a fitted effect of over 55% in size
Procedure, shortened: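 LYMP2-017 human lymphoblastoid cells (2500/well) settled 5 hr at 37 C, then exposed to compound 24 hr at 37 C in complete medium. Viability taken as intracellular ATP by CellTiter-Glo luminescence after 30 min at RT; AC50 from Hill fits.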

[17] = Cell Viability - LYMP2-019 (AID 973); details: LYMP2-019 lymphoblastoid cell line viability; series mostly up to 92.2 µM
Procedure, shortened: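 Human lymphoblastoid LYMP2-019 cells (2500/well) preincubated 5 h at 37 C, then treated 24 h at 37 C in complete medium. Viability by CellTiter-Glo ATP luminescence after 30 min at room temperature; AC50 from Hill fits.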

[18] = Cell Viability - LYMP2-021 (AID 974); details: LYMP2-021 lymphoblastoid cells viability; series mostly up to 92.2 µM
Procedure, shortened: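 Human lymphoblastoid LYMP2-021 cells, 2500/well in complete medium, treated 24 hours at 37 C. Intracellular ATP by CellTiter-Glo luminescence (30 min, RT); AC50 from Hill fits of concentration-response.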

[19] = Cell Viability - LYMP2-006 (AID 978); details: LYMP2-006 lymphoblastoid cell viability, qHTS; series mostly up to 92.2 µM; also: potency is read from the fitted curve at half-maximal effect; nearly all actives have a fitted effect of over 60% in size
Procedure, shortened: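 Human lymphoblastoid cells, 2500 per well, were preincubated 5 hr at 37 C, then exposed to compounds for 24 hr at 37 C in complete medium. Viability was read as intracellular ATP by CellTiter-Glo luminescence; AC50 from Hill-equation fits of qHTS concentration-response data.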

[20] = Cell Viability - LYMP2-007 (AID 979); details: LYMP2-007 lymphoblastoid cell viability; activity change, negative = cytotoxicity: at 92.2 µM (top of the series)
Procedure, shortened: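 Human lymphoblastoid LYMP2-007 cells (2500/well) preincubated 5 h at 37 C, then treated 24 h at 37 C in complete medium. Viability by CellTiter-Glo ATP luminescence after 30 min at room temperature; AC50 from Hill fits.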

[21] = Cell Viability - LYMP2-008 (AID 980); details: LYMP2-008 lymphoblastoid cell viability, qHTS
Procedure, shortened: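 LYMP2-008 lymphoblastoid cells (2500/well) plated 5 h, then treated 24 h at 37 C in complete medium. Viability read as intracellular ATP by CellTiter-Glo luminescence after 30 min at room temperature; AC50 from Hill fits.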

[22] = Cell Viability - LYMP2-010 (AID 981); details: LYMP2-010 lymphoblastoid cell viability, qHTS; series mostly up to 92.2 µM
Procedure, shortened: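 Human lymphoblastoid LYMP2-010 cells (2500/well) treated 24 h at 37 C in complete medium; viability read as intracellular ATP by CellTiter-Glo luminescence. AC50 from Hill fits of concentration-response data; tetraoctylammonium bromide positive control.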

[23] = Cell Viability - LYMP2-014 (AID 983); details: LYMP2-014 lymphoblastoid cells, viability qHTS; series mostly up to 92.2 µM; also: potency is read from the fitted curve at half-maximal effect; nearly all actives have a fitted effect of over 50% in size
Procedure, shortened: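 LYMP2-014 human lymphoblastoid cells, 2500/well, treated 24 h at 37 C in complete medium; viability by CellTiter-Glo ATP luminescence after 30 min at room temperature. AC50 from Hill fits of qHTS concentration-response; tetraoctylammonium bromide positive control.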

[24] = Cell Viability - LYMP2-018 (AID 985); details: LYMP2-018 lymphoblastoid cells, viability (qHTS); series mostly up to 92.2 µM;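 also: potency is read from the fitted curve at half-maximal effect; compound exposure lasted 24 hr at 37 °C; nearly all actives have a fitted effect of over 50% in size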
Procedure, shortened: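 Human lymphoblastoid LYMP2-018 cells, 2500/well, settled 5 hr at 37 C then exposed to compound 24 hr at 37 C; intracellular ATP measured by CellTiter-Glo luminescence. AC50 from Hill-equation concentration-response fits.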

[25] = Cell Viability - LYMP2-020 (AID 986); details: activity change, negative = viability loss: at 92.2 µM (top of the series)
Procedure, shortened: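 Human lymphoblastoid LYMP2-020 cells (2500/well) preincubated 5 h at 37 C, then treated 24 h at 37 C. Viability measured as intracellular ATP by CellTiter-Glo luminescence after 30 min at room temperature; AC50 from Hill fits.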

[26] = Cell Viability - LYMP2-022 (AID 987); details: LYMP2-022 lymphoblastoid cell viability; series mostly up to 92.2 µM
Procedure, shortened: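 LYMP2-022 lymphoblastoid cells (2500/well, complete medium) were treated with compounds for 24 hours at 37 C; intracellular ATP was then read by CellTiter-Glo luminescence after 30 min at room temperature. AC50 values were derived from Hill-equation fits.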

[27] = Cell Viability - LYMP2-024 (AID 988); details: LYMP2-024 lymphoblastoid cell viability; activity change, negative = cytotoxicity: at 92.2 µM (top of the series)
Procedure, shortened: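 Human lymphoblastoid LYMP2-024 cells (2500/well) rested 5 hr, then treated with compound for 24 hr at 37 C in complete medium. Viability was measured as intracellular ATP by CellTiter-Glo luminescence. AC50 values came from Hill-equation fits.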

[28] = molecular target: Bile acid receptor (Homo sapiens) (UniProt Q96RI1); assay: qHTS assay for small molecule antagonists of farnesoid X receptor signaling (AID 588526; calls by dose curve; also: % is scaled to controls: 0 for no effect and ±100 for the full control effect); details: HEK293T FXR-UAS-bla, beta-lactamase ratio, antagonist mode; activity change, negative = inhibition: at 76.7 µM (top of the series)
Procedure, shortened: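 Concentration-response titrations were fitted to the Hill equation for half-maximal inhibition and maximal response, with data normalised to 50 uM chenodeoxycholic acid and DMSO control wells. Cells: FXR-UAS-bla HEK293T, dialyzed FBS.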

[29] = molecular target: Glucocorticoid receptor (Homo sapiens) (UniProt P04150); assay: qHTS assay for small molecule antagonists of glucocorticoid receptor signaling (AID 588533; active = well fitted inhibition curve with a large enough effect in the signal ratio, with a control signal flat, not every such curve was filed as active; inconclusive = small, poorly fitted or top-dose-only effect, or effect the other way, or a change in a side signal; the % refers to the signal ratio;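 also: cells stimulated with 2 nM dexamethasone as agonist; potency is read from the fitted curve at half-maximal effect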); details: HeLa MMTV-bla, GRE beta-lactamase ratio, antagonist mode, 18 h; activity change, negative = inhibition: at 76.8 µM (top of the series)
[30] = molecular target: Peroxisome proliferator-activated receptor delta (Homo sapiens) (UniProt Q03181); assay: qHTS assay for small molecule antagonists of peroxisome proliferator-activated receptor delta signaling (AID 588535; active = well fitted inhibition curve with a large enough effect in the signal ratio, with a control signal flat, not every such curve was filed as active; inconclusive = small, poorly fitted or top-dose-only effect, or effect the other way, or a change in a side signal; inactive = no such curve, though single readings can be large or run the other way; the % refers to the signal ratio); details: HEK293T PPARd-UAS-bla, beta-lactamase FRET ratio, 18 h; activity change, negative = inhibition: at 76.7 µM (top of the series)
Procedure, shortened: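 Reporter: UAS-bla under PPAR-delta response element, HEK293T host. Medium: 2% charcoal/dextran FBS. Dosing: titration, 18 hrs, 37 C. Detection: CCF4, 2 hrs RT, 405 ex/460 and 530 em.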
Tags tell the direction and shape of the fitted curve.

UniProt Q03181, sequence (Q03181 whole entry, looked up): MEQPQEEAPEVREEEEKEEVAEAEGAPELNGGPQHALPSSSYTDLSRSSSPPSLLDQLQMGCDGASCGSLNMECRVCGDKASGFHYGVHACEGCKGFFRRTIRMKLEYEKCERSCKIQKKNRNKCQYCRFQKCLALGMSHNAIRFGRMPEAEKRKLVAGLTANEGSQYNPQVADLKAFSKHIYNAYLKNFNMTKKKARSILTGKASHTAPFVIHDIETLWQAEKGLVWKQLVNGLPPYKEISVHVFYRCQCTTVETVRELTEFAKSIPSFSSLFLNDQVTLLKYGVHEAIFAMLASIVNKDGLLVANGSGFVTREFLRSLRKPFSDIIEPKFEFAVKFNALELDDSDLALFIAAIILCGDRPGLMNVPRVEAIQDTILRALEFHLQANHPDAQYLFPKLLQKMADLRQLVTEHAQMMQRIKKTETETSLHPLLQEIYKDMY

O=[N+]([O-])c1cc(Cl)c(Cl)c(Cl)c1Cl
inactive: Potency [6] | Potency [30]
inconclusive: Potency [1] 66.4 µM [partial curve] | Potency [2] 130 µM [partial curve] | Potency [4] 31.6 µM [falling, partial curve] | Potency [5] 25.1 µM [rising, partial curve] | Potency [8] 39.8 µM [cytotoxic, partial curve] | Potency [10] 39.8 µM [cytotoxic, partial curve, poor fit] | Potency [11] 20 µM [cytotoxic, partial curve, poor fit] | Potency [12] 39.8 µM [cytotoxic, partial curve] | Potency [13] 79.4 µM [cytotoxic, single point] | Potency [14] 79.4 µM [cytotoxic, partial curve, poor fit] | Potency [15] 50.1 µM [cytotoxic, partial curve, poor fit] | Potency [16] 39.8 µM [cytotoxic, partial curve] | Potency [17] 50.1 µM [cytotoxic, partial curve, poor fit] | Potency [18] 50.1 µM [cytotoxic, partial curve, poor fit] | Potency [19] 79.4 µM [cytotoxic, single point] | Potency [20] 39.8 µM [cytotoxic, partial curve, poor fit] | Potency [21] 39.8 µM [cytotoxic, partial curve] | Potency [22] 79.4 µM [cytotoxic, partial curve, poor fit] | Potency [23] 100 µM [cytotoxic, single point] | Potency [24] 39.8 µM [cytotoxic, partial curve, poor fit] | Potency [25] 79.4 µM [cytotoxic, partial curve, poor fit] | Potency [26] 50.1 µM [cytotoxic, partial curve, poor fit] | Potency [27] 50.1 µM [cytotoxic, partial curve, poor fit] | activity change, negative = inhibition [28] -33.2% | Potency [29] 44.7 µM [inhibitor, partial curve, poor fit]
active: Potency [3] 7.94 µM | Potency [7] 25.1 µM | Potency [9] 25.1 µM
